# The supplement of paper PMC11417369
# The list shows a part of the results.
# System: PfHDP1 homeodomain (GST-tagged)
# Assay: gcPBM binding intensity (ln(normalized median fluorescence intensity)); higher = stronger DNA binding
# Outline: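 GST-fused DNA-binding domains of P. falciparum, expressed in E. coli, were applied at about 25 μg on average for 1 h to an Agilent 4 × 180k array of primer-extended double-stranded 36-bp intergenic genomic probes and negative controls. Binding intensity is the highest Masliner-normalised natural-log median intensity across replicate spots of either probe orientation, measured with Alexa488 anti-GST antibody and a 488 nm scan.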
row,Sequence,gcPBM binding intensity (ln)
1,AGGTTAAAAATAAATACACACATTTTATGGGTGTAT [CACACA_site4702],6.1
2,TATAAAAATAATATTACACACATGTAAAATGCCCGT [CACACA_site7522],6.38
3,TGAAAATAATTATAGGTGCATAAACATACGGATCTT,8.97
4,TTTTTTTTGTATTTTTCACACACTCTCTATCTCTCT [CACACA_site8655],6.66
5,ATATATTAATAATAAATTAAAAGGAGTAACATTTTC [CACACA_negctrl_site320],6.35
6,CACATTATGTATCATACACACAAATAAATATATAAT [CACACA_site4505],6.7
7,ATATTATTAATATATTGTACTTTTTTTTTTTTATTT [XGTACX_site496],6.32
8,ATATGTATTTAATTCACACAAAAATATGTTCATGAA [CACACA_site5223],6.41
9,TTATATAGATGGAATAGTACAGTATATATATATATA [XGTACX_site8755],9.18
10,ATTTCTCAATCGTAATGTACAAAAAAAAGGAAAAAA [XGTACX_site1193],6.15
11,CCTTTATATTATAAAAGTACATAATATTTTATAAGT [XGTACX_site1629],6.15
12,AGCTCTATATTTTACACATGCGATTTGGATATATAT [TGCATGCA_site105],6.6
13,TAAATATATATCATCACACACACATACATAAATATA [CACACA_site183],6.93
14,ATATTACAACGTAACGAATATTTCATAAATTCTTAA [CACACA_negctrl_site770],5.96
15,AAAAAAAAAAAACACACACACACACTAATATATAAA [CACACA_site8302],6.7
16,TAAAATAATTCGTAACGTACATATGTAATATAATAT [XGTACX_site6126],7.16
17,TAATATATAAGAAACAAAAAAAAATAAAAATATATA [TGCATGCA_negctrl_site153],6.36
18,CGCATACACGGACACACACACACATATATATATATA [CACACA_site4520],9.19
19,GGTATAAAGAAATTTTGTACATATTTCTCCCTTTAA [XGTACX_site1874],6.39
20,ATAAAATCAACAAATCAGGATGTCACGTAAATATCA [CACACA_negctrl_site1009],6.57
21,AAATATTGTTTTTTATGTACTTATTTTTATTTATTT [XGTACX_site3481],6.68
22,ATGAAAAAGTGCTGGATTCTAAAGAAAAAAAAAAAA [CACACA_negctrl_site962],5.94

row,Sequence,gcPBM binding intensity (ln)
1,GAAAAACAAATATATTAACACACAAACATATAAACA [CACACA_site9315],6.78
2,GTTATATGAACTTATATACACACCATTTTTGTAAAT [CACACA_site695],6.69
3,AAATCATATTCTTATTTTATTTTTTTTATTTTTTAT [XGTACX_negctrl_site166],6.19
4,TGTAGATATTTTTGGGGTACTTTATAAAGAACTAGT [XGTACX_site5635],6.7
5,TTACATATATTGGGGTGTACATATATTTTCCTTCAC [XGTACX_site6224],7.35
6,AAAAAAAAAAAAAAAAGTACACATAATTGTATATGT [XGTACX_site6339],6.58
7,AAAAAAAAGAAAAAAACACACAATGGAAAAAATGTA [CACACA_site3675],6.51
8,TCAACTTGATTTATATGTACACATATAAGTAATTAT [XGTACX_site1798],6.47
9,ACGTTAGGCTTATTTGCACACTTGTATTAAAATTTT [CACACA_site4854],10.1
10,AAAAATATGCTTCCATGTACTTAAAAAAAAAATTTA [XGTACX_site3617],6.21
11,TATACAAACTATGATGCACACATATATATATGTATA [CACACA_site8327],8.97
12,AAAAAAAATTTTCTTCTGTTGTATTTTTTATACGTT [GTGCAC_negctrl_site477],6.45
13,GTTTATTTTTTCATTTGTACACATAAATAAATATAT [XGTACX_site7752],6.92
14,TTAATTATATTATGCACACACAATTGGAAAAAAAAT [CACACA_site1958],10.2
15,GGTATATATTCTATCACACATATTTCCATGAAAATA [CACACA_site4728],6.63
16,TATTTAGAAATAAATACACACATACATTTTTGTATA [CACACA_site4557],6.33
17,TTATACGAAGTACGTACACACACTTATATGTTACTA [CACACA_site4019],6.71
18,AATAAATAGAAAGAGGTGCTACATTATATTATTTAT,6.34
19,ATAGATATAACATATGCATGTAAAATATAACCACTC [TGCATGCA_site60],6.65
20,TATTTTGTATTCATTTGTCACATATAATAGATAGGA [TGCATGCA_negctrl_site9],6.82
21,AATATATGTATATCCACACACATATATATATATATA [CACACA_site1633],9.44
22,TGTGCGGAAATAAGTGCACACATAGATATATGTATT [CACACA_site9227],9.46

row,Sequence,gcPBM binding intensity (ln)
1,TATATATAATATTTTTCACACACCATTTCCTTAAAC [CACACA_site1341],6.56
2,TTTTTTTTTTTTTTTTGTACATAATAAATGTTCTTA [XGTACX_site6754],6.28
3,TGTATCTATAATAAAACACACATTTTTAATGTGCTC [CACACA_site6788],6.21
4,CGCTCTCTTTAATATTGTACATATATATTATATATA [XGTACX_site7017],7.03
5,TAATAAATGACAAATTAACACACATATATTATATAT [CACACA_site9294],6.53
6,ATAAATCAAATGCACACACACAAAAAAAAAAAAAAA [CACACA_site6221],9.77
7,TACAAAAATATATAAACACACAAATATAATATATAT [CACACA_site2942],6.72
8,ATATTTATAACTTGGTGTACTTTGAAAAAAAAAAAA [XGTACX_site5194],6.23
9,AAAAAAAAAAAAAACACACATACATACATACATATA [CACACA_site4121],6.57
10,TTATATTAGCCGATGGTGCATATATTTATAGGAAAA [GTGCAC_site9518],9.88
11,ATAATTTTTTAGATCACACATATAAATAAATAAATA [CACACA_site5175],6.34
12,GGATAATCATACGAAGCATGCTGAATTTCCAAATAA [TGCATGCA_site1013],6.25
13,AAAAAAATTAAATGGGGTACAATAAGGGTCAAATAT [XGTACX_site8669],7.1
14,AAAAAAAAAAATGGCTGTACATAATATTTAAATAGG [XGTACX_site4286],6.89
15,TTTTATTATATATATTGTACATATATTTTTATTTTT [XGTACX_site1564],6.7
16,AATTTATAAATAATTAATTTGATAAATTATAAAGGG [GTGCAC_negctrl_site544],6.64
17,TTAGATAGATTTGTACGTACTTATTATAACGTATCA [XGTACX_site5067],6.11
18,ACATATTTATATGTCTGTACAAATATGCAATTTTTT [XGTACX_site5516],6.91
19,ATTTAATAAAAAAAAAAAATATTGTAGAATATGATG [GTGCAC_negctrl_site195],6.33
20,ATAAACATCGGTAGTACACACATTCATGTACTTGAT [CACACA_site3037],6.44
21,AATTTGTAAAATAAGGTGCGTATAAAAAATTATATT [GTGCAC_site9676],6.77
22,ATATACATATTCTTGTGTACATAAAAATTTATATAT [XGTACX_site8726],6.55

row,Sequence,gcPBM binding intensity (ln)
1,CAAATGGTAAATGAAAGTACAAATTGTTTTGATTAA [XGTACX_site1536],6.26
2,TTTATAATTTTAAAATGTACAAGGAGGAAAAATTCT [XGTACX_site422],6.87
3,TATATAAATATTCGTAGTACAATACAATTATAAGTA [XGTACX_site3068],6.47
4,TTATATTTTATATTTACACACATTTATATTTATAAA [CACACA_site203],6.42
5,TAAAAATATTTAAACTGTACTATTTTATGTTAAATG [XGTACX_site6620],5.93
6,ATAATCCAAAAAAATCAAATAAAATAAAATAAAATA [CACACA_negctrl_site449],6.37
7,AATAAAAACTACATGTGTACATAATAAATACATATA [XGTACX_site755],6.73
8,TTTTTTCTTTTCTTTTTATTTTATTTTGTTTTATTT [CACACA_negctrl_site799],6.07
9,TGTTGCAAAACAAAAAAAAAAAAAAAAAATAATAAT [CACACA_negctrl_site1642],6.66
10,TGAACCAGATTTAGAAGTACTAAATATTACATACAT [XGTACX_site2437],6.2
11,TATATATTAAAACACACACACATATATATATATATA [CACACA_site3787],9.43
12,ATTTTAATGGGACATGCATGGGACAAACTACAAATT [TGCATGCA_site853],7.26
13,CAGAAATATTAATGCTGTACGGAATACATATATTTT [XGTACX_site539],6.18
14,AGAATATTTATATGATGTACTTATATATATATATAT [XGTACX_site3021],8.98
15,GTATATAATTTTTTTTTTTTTTTCATTCTTTTCCTT [CACACA_negctrl_site1780],6.39
16,ATGAATTGACCATATTGTACATATTTAGGACTTACC [XGTACX_site8072],6.71
17,AAATATATGAAATATACACACTTCTTTGGTATTATT [CACACA_site4414],6.29
18,TTTTCTTACATGAGTGTACACACTTTTTTTCAGAAA [CACACA_site70],7.98
19,TTTATATAATTTTAATGTACATATATATATATAAAT [XGTACX_site4381],6.49
20,ATATATCATAAATAAATGAAAATATTTTCTATGTGT [CACACA_negctrl_site689],6.77
21,TTATTTGAATAATGTTTGCACTTAGAGTATTTTATA,8.74
22,TAATAAATAAGATTCACACATATTTAAATGTTATGC [CACACA_site5275],6.1
